Measurements reported in PMC4336329 (PLoS ONE, 2015).
Screen size: about 310,000 compounds; about 14,000 (4.5%) showed an effect of 50% or more. Effects have a minus sign here. The list shows a part of the results.

Target: human ether-à-go-go-related gene (hERG) potassium channel (human, UniProt Q12809)
Assay: primary screen, population patch clamp on CHO cells stably expressing hERG
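Also: peak tail current of the secondary pulse compared with the same well before compound.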

Chain of human ether-à-go-go-related gene (hERG) potassium channel (Q12809 whole entry, looked up): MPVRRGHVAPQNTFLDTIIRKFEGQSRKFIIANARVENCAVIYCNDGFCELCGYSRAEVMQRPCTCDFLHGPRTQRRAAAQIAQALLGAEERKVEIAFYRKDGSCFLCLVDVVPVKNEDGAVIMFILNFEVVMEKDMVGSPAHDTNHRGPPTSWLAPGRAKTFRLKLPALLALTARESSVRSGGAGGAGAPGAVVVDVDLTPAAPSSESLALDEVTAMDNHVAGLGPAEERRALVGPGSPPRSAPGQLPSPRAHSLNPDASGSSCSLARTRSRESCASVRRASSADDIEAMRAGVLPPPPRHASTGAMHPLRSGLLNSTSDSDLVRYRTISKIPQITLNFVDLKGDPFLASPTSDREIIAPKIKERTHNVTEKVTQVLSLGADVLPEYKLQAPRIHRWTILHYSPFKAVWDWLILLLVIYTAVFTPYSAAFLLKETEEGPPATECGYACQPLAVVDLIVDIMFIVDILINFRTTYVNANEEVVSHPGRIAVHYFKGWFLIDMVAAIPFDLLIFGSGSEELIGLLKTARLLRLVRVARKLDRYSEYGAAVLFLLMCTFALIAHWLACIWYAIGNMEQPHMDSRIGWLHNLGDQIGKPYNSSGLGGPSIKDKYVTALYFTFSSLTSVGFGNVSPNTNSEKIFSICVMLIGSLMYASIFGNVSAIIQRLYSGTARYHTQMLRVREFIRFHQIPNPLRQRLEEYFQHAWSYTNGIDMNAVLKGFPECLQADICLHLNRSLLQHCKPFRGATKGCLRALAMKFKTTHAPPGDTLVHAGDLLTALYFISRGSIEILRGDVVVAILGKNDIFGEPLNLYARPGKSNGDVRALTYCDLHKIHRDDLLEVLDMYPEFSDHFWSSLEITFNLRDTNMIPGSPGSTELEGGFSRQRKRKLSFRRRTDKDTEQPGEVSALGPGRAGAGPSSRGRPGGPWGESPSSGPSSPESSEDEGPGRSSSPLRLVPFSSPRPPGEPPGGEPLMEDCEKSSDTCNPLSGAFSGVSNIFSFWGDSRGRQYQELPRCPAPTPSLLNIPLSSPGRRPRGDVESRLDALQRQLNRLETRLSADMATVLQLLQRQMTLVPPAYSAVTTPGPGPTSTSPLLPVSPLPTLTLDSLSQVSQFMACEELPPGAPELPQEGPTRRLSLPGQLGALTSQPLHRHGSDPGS

SMILES | hERG current change (%, negative = inhibition) at 10uM [%]
CCOC(=O)C1=C(C)N=c2s/c(=C\c3ccc(OCC(=O)O)cc3)c(=O)n2C1c1ccc(OC(C)C)cc1 (stereo not drawn) | 9.19
CCS(=O)(=O)c1nc(S(=O)(=O)c2ccc(C)cc2)c(NCc2ccccn2)s1 | 4.58
Nc1cc(=O)[nH]c(=O)n1CCc1ccccc1 | 19
O=C(CSC1=NCCS1)N1CCOCC1 | 0.0438
CCN(Cc1ccccc1)S(=O)(=O)c1ccc2c(c1)NC(=O)CC(=O)N2 | -45.4
O=C(NCc1cccnc1)c1cc(Sc2cccc(Cl)c2)nc2ccccc12 | -15.4
CCC(C)NC(=O)C1CCCN(S(=O)(=O)c2ccc3c(c2)CC(C)N3C(=O)C2CC2)C1 (stereo not drawn) | 4.46
CCCCOC(=O)c1ccc(N2C(=O)CC(N3CCN(C/C=C/c4ccccc4)CC3)C2=O)cc1 (stereo not drawn) | -31.4
O=C(N/N=C/c1ccc(O)c([N+](=O)[O-])c1)C1CC1(c1ccccc1)c1ccccc1 (stereo not drawn) | -50.7
Cc1nnc(NC(=O)Cn2c(=O)sc3ccccc32)s1 | 9.97
O=C(CNCc1ccccc1)Nc1cccc(Cl)c1Cl.O=C(O)C(=O)O | 5.28
C=CCNC(=O)COC(=O)CNC(=O)c1cc(Cl)cc([N+](=O)[O-])c1 | 13
COc1ccccc1C(=O)N(Cc1ccc(C)o1)C1CCS(=O)(=O)C1 (stereo not drawn) | -11
Cc1ccc2[nH]c(=O)c(CN(Cc3cccs3)C(=S)NCc3ccco3)cc2c1 | -6.94
CN(c1ccccc1C(=O)Nc1ccc(F)c(Cl)c1)S(C)(=O)=O | 3.5
O=[N+]([O-])c1ccc(Cl)cc1N/N=C/c1ccncc1 | 10.1
O=C1c2ccccc2C(Nc2ccc(F)c(Cl)c2)N1c1ccccn1 (stereo not drawn) | 6.21
CCOC(=O)N1CCN(CC(=O)Nc2c(C(=O)OC)[nH]c3ccc(Cl)cc23)CC1 | -21.1
Cc1cccc(NC(=O)C2CCN(C(=O)NC3CCCCC3)CC2)c1 | 7.39
CCn1cc(S(=O)(=O)Nc2cc(C(=O)OC)ccc2C)cn1 | -20
C/C(=N\NC(=S)NC1CCCCC1)c1cccc(C(F)(F)F)c1 | 7.59
CC1CCCC(NC(=O)C2CCCN2S(=O)(=O)c2cccc3nsnc23)C1C (stereo not drawn) | -15.4

SMILES | hERG current change (%, negative = inhibition) at 10uM [%]
COc1ccc2cc(C(N)=O)/c(=N/NC(=O)c3ccco3)oc2c1 | -33.1
Cc1cc(=O)oc2cc(OCC(=O)OCC(=O)N(C)C3CCS(=O)(=O)C3)ccc12 (stereo not drawn) | 0.08
Cc1ccc(C2C(C#N)=C(N)N(c3cccnc3)C3=C2C(=O)CCC3)c(C)c1 (stereo not drawn) | -4.42
O=C(Nc1nc(=S)ss1)c1c(F)cccc1F | 10.2
Cc1cccc(NC(=O)c2cc(S(=O)(=O)c3ccccc3)ccc2Cl)c1 | -6.32
Cc1cc(=O)n2c(-c3ccc(Cl)cc3)csc2n1 | -16.7
CCOc1ccc(/C=N/n2c(C3CCCCC3)n[nH]c2=S)cc1 | 18.4
COc1ccc(/C=C/C(=O)N2CCCC2)cc1OC | -7.06
C=CCNC(=S)Nc1sc2c(c1C(=O)OCC)CCN(C(=O)OCC)C2 | 14
O=S(=O)(c1cccc(-c2nnc3n2CCCCC3)c1)N1CCCC1 | 7.25
CCc1cccc(NC(=O)CN(C)S(=O)(=O)c2cccc3nsnc23)c1 | -39.1
CCOc1ccccc1NC(=O)COC(=O)C(Cc1ccccc1)NC(=O)c1ccco1 (stereo not drawn) | -8.33
Cc1ccc(N2C(=O)CC(Sc3nc(-c4ccccc4)c4cc(Cl)ccc4n3)C2=O)c(C)c1 (stereo not drawn) | 3.36
CN(/C=C/C(=O)C(F)(F)F)Cc1ccccc1 | 7.49
CSc1ccc(C#N)cc1NC(=O)c1ccc(Cl)cc1Cl | -9.36
Cc1cccc(N2C(=O)C(O)=C(C(=O)c3cccs3)C2c2ccc(C(C)C)cc2)n1 (stereo not drawn) | -9.21
O=C(NC1CCCC1)C(c1ccccc1F)N(C(=O)Cc1cccs1)c1ccc2c(c1)OCCO2 (stereo not drawn) | -15.1
Cc1ccc(NC(=O)CCNC(=O)c2ccc([N+](=O)[O-])cc2)cc1C | -0.694
Cc1ccc(NC(=O)C(C)OC(=O)/C=C/c2ccccc2)cc1S(=O)(=O)N1CCOCC1 (stereo not drawn) | -8.78
CCc1ccc(CCN2C(=O)c3ccccc3C2=O)nc1 | -27.9
COCN(C#N)c1nc(OC)nc(OC)n1 | 9.19
CCOC(=O)c1ccc2c(c1)nc(C1CCN(S(=O)(=O)c3cccs3)CC1)n2CC | -43.6

SMILES | hERG current change (%, negative = inhibition) at 10uM [%]
Nc1nc(Cl)cc(Oc2ccccc2F)n1 | 2.9
COc1ccc(C(=O)O)cc1S(=O)(=O)Nc1ccc(Oc2ccccc2)cc1 | -14.8
CC1CN(C(=O)COC(=O)c2cc([N+](=O)[O-])ccc2Cl)CC(C)O1 (stereo not drawn) | 5.39
O=C(CC1CCCCC1)Nc1ncn[nH]1 | 6.78
O=C(OCc1ccccc1)N1CCOCCN(C(=O)OCc2ccccc2)CCOCC1 | -64
COc1ccc(NC(=O)CCC(=O)OC(C(=O)c2ccccc2)c2ccccc2)cc1 (stereo not drawn) | -2.03
COc1ccc(CC(C)N2CCN(c3ccccc3OC)CC2)cc1OC (stereo not drawn) | -62.1
CN(c1ccccc1)S(=O)(=O)c1cccc(NC(=O)c2cncc(Br)c2)c1 | -24
COc1ccc(NCc2nnc(SCC(=O)Nc3ccccc3)n2C)cc1 | -12.5
O=c1c(-c2ccccc2)nnc2sc(COc3ccc(Br)cc3)nn12 | 17
CCN(c1ccc(NC(=O)COC(=O)c2cccs2)cc1)C(C)C | -2.66
COc1cccc(C(=O)CN(C(=O)c2ccc(Cl)cc2Cl)N2C(=O)c3ccccc3C2=O)c1 | -11.8
CCOc1ccccc1CN1CCC(CO)(CCOc2ccccc2)CC1 | -80.2
Cc1cc(C(=O)OCC(=O)N2CCc3ccccc32)c(C)o1 | 12.9
CCOCCn1ccc2c(OCC(=O)NCCc3ccc(OC)c(OC)c3)cccc2c1=O | -19.2
COC(=O)c1c(C)c(OC(=O)c2c(C)cc(O)c(C=O)c2O)cc(C)c1O | 26.4
CC1=C(C(=O)OCCc2ccccc2)C(c2ccsc2)NC(=O)N1C (stereo not drawn) | -10.9
CCCCOC(=O)CSCC(=O)Nc1cc(C)on1 | 5.48
CC(C)(C)NC(=O)C(=O)NNC(=O)c1cccc([N+](=O)[O-])c1 | 9.73
Cc1ccc(N(CC(=O)NCCc2ccccc2)C(=O)CCC(=O)Nc2cc(C)ccn2)cc1 | 16.5
CC(=NCc1cccnc1)c1c(O)n(C2CCCCC2)c(=O)[nH]c1=O | -24.7
O=C(O)/C=C/C(=O)N1CCN(C(c2ccccc2)c2ccccc2)CC1 | 40.8

SMILES | hERG current change (%, negative = inhibition) at 10uM [%]
CCOc1ccc(S(=O)(=O)Nc2nc3ccc(OC)cc3s2)cc1 | 11.8
CN1CCN(c2ncc3c(n2)CC(c2ccccc2F)CC3=O)CC1 (stereo not drawn) | -4.43
CCc1cc2c(NC3CCCC3)ncnc2s1.Cl | -11.4
NS(=O)(=O)c1ccc(NC(=S)Nc2ccc(OCc3ccccc3)cc2)cc1 | 24.2
C=CCN1C(=O)c2cccc3c(N4CCCCC4)ccc(c23)C1=O | -13.1
CN(C)c1cccc(C(=O)NN2C(=O)NC3(CCCCC3)C2=O)c1 | 2.18
O=C(C1CCCN(S(=O)(=O)c2cccc3nonc23)C1)N1CCC(Cc2ccccc2)CC1 (stereo not drawn) | -30.9
O=C(COC(=O)COc1cccc(F)c1)NCCC1=CCCCC1 | 17
O=C(c1cccc(Cl)c1)N1CCn2c1nc1ccccc12 | -15.7
O=C(Cn1sc2ccccc2c1=O)NC12CC3CC(CC(C3)C1)C2 | 20.6
CC(=O)NCc1nc2ccccc2n1Cc1ccccc1F | 1.1
O=C(NC1=C(Nc2ccc(Cl)cc2)C(=O)c2ccccc2C1=O)c1ccccc1 | -20.3
Cc1ccc2[nH]c(C(=O)N3CCOCC3)cc2c1 | 18.7
CC1CN(Cc2nnc(-c3ccccc3)o2)CC(C)O1.Cl (stereo not drawn) | 4.76
O=C(Nc1ccc2nc(-c3ccco3)[nH]c2c1)c1cccs1 | -14.5
CCOc1ccc(CCNC(=O)COC(=O)CCc2cc(OC)c(OC)c(OC)c2)cc1OCC | -9.01
CCN1C(=O)C2C(c3cccc(F)c3)NC(CC)(C(=O)OC)C2C1=O (stereo not drawn) | 22.8
COCCN(C(=O)c1csnn1)C(C(=O)NC1CCCCC1)c1cccs1 (stereo not drawn) | -19.5
COc1ccc(CN(C)C(=O)c2ccccc2Sc2ccccc2C#N)cc1OC | -13.9
CCc1nc2ccccc2n1Cc1cc(=O)n2cc(C)ccc2n1 | -6.17
O=C(CN1CCCCC1)N/N=C/c1ccccc1OCc1ccccc1 | -30.2
